± gives the standard deviation of the averaged measurements. The list shows a part of the results.
system: PfAP2-EXP AP2 domain (GST-tagged); experiment: gcPBM binding intensity (ln(normalized median fluorescence intensity)); higher = stronger DNA binding
In short: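 Binding intensity values are the highest Masliner-normalised natural-log median intensity among replicate spots of either probe orientation. The binding step lasted 1 h in 1× PBS with 1% milk, 0.2 mg/ml BSA, 0.5% salmon testes DNA and 0.03% Triton X-100, using GST-tagged P. falciparum DNA-binding domains expressed in E. coli on an Agilent 4 × 180k array of primer-extended double-stranded 36-bp intergenic genomic probes plus negative controls. Alexa488 anti-GST antibody and a 488 nm scan detected bound protein.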

Sequence	gcPBM binding intensity (ln)
AGAGTTCTCATATGCACACAAAAAACTTTCATTTAT [CACACA_site45]	8.41 ± 0.25
TATTTTTTTCTTACATACTAATTTGGTACTCACATA [TGCATGCA_negctrl_site81]	8.72 ± 0.43
AAATAAATCTTATGCACACAAATAATTAATTAAACA [CACACA_site1693]	8.61 ± 0.31
ATAAAATGATAAATTTGTACACAAAAAAAAAAAAAA [XGTACX_site964]	8.33 ± 0.62
AAAATAAAATATTTCTGTACTTATAACTATTCTATA [XGTACX_site8007]	8.29 ± 0.33
GGGTATACAAATAAACGTACAAACTCATAAAAAAAA [XGTACX_site3191]	8.58 ± 0.57
CATATATAACAATTCTCACACATAAAAAAAAAAAAT [CACACA_site4564]	8.54 ± 0.57
TTTTTATGGTAAATAAAAATATCTCCCTCCTTAATT [CACACA_negctrl_site1352]	8.14 ± 0.49
TAATAATTTATAATAGTGCATTTGATTTTAAAAATA	8.23 ± 0.21
TTAAAAAAATATAATACACACCAAAAATATGCACAT [CACACA_site5209]	8.85 ± 0.35
TCTTTTTAAACTAATAGTACATATATATTAATAAAT [XGTACX_site4217]	8.27 ± 0.29
ATTTACATAAATTGCATATATCGATGTAAATAAATA [CACACA_negctrl_site1150]	8.48 ± 0.52
CATTTATTTTTGTTCTGTACATAAAGATGAACAAAA [XGTACX_site6797]	8.48 ± 0.41
ATATATATATATATATGTACATATATTTATTTATTG [XGTACX_site6267]	10.2 ± 0.3
AATGTTTATTAACATTGTACTTATAATATGTCACAA [XGTACX_site2974]	8.38 ± 0.11
AATAATAAAGATCAATGTACATAATAAAAAAAAAAA [XGTACX_site2692]	8.7 ± 0.46
TATCATGGGTGTATTTCACACACGGATAATCATTTA [CACACA_site8211]	8.29 ± 0.29
CACATATAAATATTAACACACATAATGAGTTATATA [CACACA_site7316]	8.18 ± 0.41
TTATTAAGTAAATCACATTTAATTTTTTTTTTTTTT [CACACA_negctrl_site1280]	7.84 ± 0.2

Sequence	gcPBM binding intensity (ln)
AAGAAAAAAAAAAAAAGTACATGCAATATGGATCTT [XGTACX_site3106]	8.69 ± 0.071
TTATACCATATTTATAGTACGTACAAATAAATCAAT [XGTACX_site4975]	8.67 ± 0.11
AAACAACATATATTAATATGTACATATATATAGATA [GTGCAC_negctrl_site229]	8.55 ± 0.34
AATAATTGTTAAAGCTGTACAATACTTATATAAGAA [XGTACX_site5729]	8.7 ± 0.48
TTTTTTTTTTTTGTAACACACAATAATATAACATTA [CACACA_site3411]	8.43 ± 0.4
TTTTTATTGTTATAGTTATAATATATTATTTGATTA [XGTACX_negctrl_site27]	8.44 ± 0.4
TATCCTAACTTTAGATGTACACAAATAAAAAAAAAA [XGTACX_site4491]	8.41 ± 0.4
CCATATAAAATATAAAAACACACGTATATATACATA [CACACA_site1511]	8.66 ± 0.59
TGTACATATATATAGATATATATAGATATATATATA [CACACA_negctrl_site1678]	9.41 ± 0.099
ACAAAATGTAGAAAATGTACAAAATTAACAAAAGAA [XGTACX_site5019]	9.16 ± 0.64
ATTCAATCTTTTAATACACACAATTTATTTCAAAAC [CACACA_site835]	8.4 ± 0.4
AAATAATGGTTAGCTACACACAAAGCATTTTTTGAA [CACACA_site1016]	8.38 ± 0.56
TTTTAAAAAGATCATTAAAAAAAAAAAAAGAACAAA [CACACA_negctrl_site528]	8.53 ± 0.41
ATAATATAACAATACGCACACGTATACAAAAAAAAA [CACACA_site5703]	8.63 ± 0.3
TTGTATATATTTATATGTACATATATTACTTTTGCT [XGTACX_site2449]	8.44 ± 0.38
TGTCTTGTAAATTATTGTACTATTTAAAGTATACAA [XGTACX_site7864]	8.41 ± 0.3
AAAATACAAACAAGTGGTACTGTTTATAAATGGTTG [XGTACX_site1503]	8.3 ± 0.31
TTTTTTTTTTGAAGTGCATGTTACGATGAAAAAAAA [TGCATGCA_site64]	8.81 ± 0.33
GTATATTAATAAACATGTACACAATTTATTTATATT [XGTACX_site1012]	8.52 ± 0.35

Sequence	gcPBM binding intensity (ln)
TTTTTTTTTAAATGTTGTACATTATATTTGTGTATA [XGTACX_site8354]	8.44 ± 0.33
ACATATAAAATGATGCGTACATATTTGATCATATAC [XGTACX_site153]	8.86 ± 0.57
CTAAATAACTTAAGGTGTACGTTTCCAATAAAAAAA [XGTACX_site1742]	8.34 ± 0.34
TGTAGCCTGGAGAAGAGTACATAGTATCTGGTAGCT [XGTACX_site4943]	8.61 ± 0.49
CGTATGTGCGGACATGCATGCAATATACAAGAAAAA [TGCATGCA_site145]	10.2 ± 0.28
TTTTTTTTTACTGCATGTACTTGATGTAAATAAATT [XGTACX_site3045]	8.85 ± 0.32
AATGGAAATTTTTCTTGTACACATATATGACATGTT [XGTACX_site1691]	8.62 ± 0.39
AATATGACGTAGTGGTGTACACACATGGTACCTTTA [XGTACX_site3147]	9.05 ± 0.36
TTAGAACTATTTTATACATGCAGTTATTTAATACTT [TGCATGCA_site1039]	8.65 ± 0.21
TTATAAATATAATTTTGTACATATATATATATATAC [XGTACX_site5064]	8.29 ± 0.3
AAAAGATAATTATGCACACACACACCCCCACCCAAC [CACACA_site2570]	10.67 ± 0.099
TATAGAATAATCTATAAACACACAAACACAACAAAA [CACACA_site9374]	8.96 ± 0.45
CACGCACGCAGACACACACACACACGCACATATATA [CACACA_site6303]	8.74 ± 0.44
ACAACAATTCACTTGATGCACTAACCAAAAAAATAA	8.69 ± 0.26
ACATATATTTTTTTTTGTACATATAAATATATATAT [XGTACX_site6491]	9.04 ± 0.11
AAAAAAATAATCATCACACACGGAGAATGTCCAATA [CACACA_site5305]	8.49 ± 0.56
ATATATTTTCCTTCAAGTACACATATAAATGTGTAT [XGTACX_site6633]	8.64 ± 0.33
ATTAAAATATAAGTCACACATATATATATATATATA [CACACA_site6145]	10.2 ± 0.33
TATTTTTTTTTATTTTTTTTTATTTTGTTTTTTTAT [TGCATGCA_negctrl_site315]	8.21 ± 0.53
